Hit rate of the full screen: of about 48,000 compounds, about 450 (0.94%) were called active. Another 19% or so got no clear call; they are omitted. The call rests on the fitted dose curve; in most records, active means well fitted inhibition curve with a large enough effect; inconclusive means small, poorly fitted or top-dose-only effect; inactive means no such curve, though single readings can be large or run the other way. The list shows a part of the results.
experiment: Primary qHTS for Identification of Small Molecule Inhibitors of Huntingtin Promoter Activity; details: HEK293 HTT promoter firefly luciferase reporter (activity 0% = vehicle and -100% = no light), 24 h; series mostly up to 57.5 µM; activity change, negative = inhibition: at the top concentration; further: nearly all actives have a fitted effect of over 50% in size
Method in brief: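 Firefly luciferase signal from promoter-reporter HEK293 cells was scaled between vehicle (0%) and zero RLU (-100%). Compounds were tested at final concentrations of up to 57.5 uM over 24 h at 37 degrees C. PTC124 at 50 uM final served as control inhibitor.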

Row | SMILES | activity change, negative = inhibition
1 | COC(=O)c1ccccc1NC(=O)C1CCCN(C(=O)c2cnn(-c3ccc(F)cc3)c2-n2cccc2)C1 (stereo not given) | inactive: -18.7%
2 | COCCn1c(=O)[nH]c2cc(C(=O)N3CCN(c4ccc(F)cc4)CC3)ccc2c1=O | inactive: -19.1%
3 | Cc1cc(Br)cc(C)c1OCC(=O)Nc1ccc(S(=O)(=O)Nc2ncccn2)cc1 | inactive: -11.4%
4 | N#C/C(=C\c1ccc(-c2ccc(Br)cc2)o1)C(=O)Nc1ccccc1O | inactive: 9.13%
5 | Cc1oc(-c2ccccc2F)nc1Cn1c(SCc2cccc(Cl)c2)nc2ccncc21 | inactive: -24.9%
6 | COc1cc2c(NC3CCN(C(C)C)CC3)nc(C3CCCCC3)nc2cc1OCCCN1CCCC1 | inactive: -23.4%
7 | CCOCCc1nn2c(=O)cc(COC(=O)c3ccccc3Br)nc2s1 | inactive: 1.79%
8 | Cc1ccc(CNC(=O)C(=O)NCC(c2cccs2)S(=O)(=O)c2ccccc2)cc1 (stereo not given) | inactive: -27.6%
9 | CCCn1c(=N)c(C(=O)NCc2ccccc2)cc2c(=O)n3cccc(C)c3nc21 | inactive: -11.3%
10 | CCCC(=O)OCc1cnc(C)c2oc(=O)c(C(=O)Nc3ccc(F)cc3C)cc12 | inactive: -5.61%
11 | COc1ccc(-c2noc(CNC(=O)c3ccc(OC)cc3OC)n2)cc1 | inactive: -11.2%
12 | Cc1ccc(C)c(NC(=O)C2CCCN2S(=O)(=O)c2ccc3c(c2)CCCC(=O)N3)c1 (stereo not given) | inactive: -60.9%
13 | CCC1=Nc2cc(C(=O)N3CCC(C)CC3)ccc2Sc2ccc(C)cc21 | inactive: -11.9%
14 | COc1cccc(-c2noc(COc3cccc(C)c3C)n2)c1 | inactive: 22.9%
15 | CCOc1ccc(CCNC(=O)C2CC(=O)N(CCc3ccc(OC)c(OC)c3)C2)cc1OCC (stereo not given) | inactive: -18.6%
16 | CCCCN(CC)CCNC(=O)c1nn(-c2ccc(OC)cc2)c(=O)c2c1c1ccccc1n2C | inactive: -14.8%
17 | N#C/C(=C\c1ccccc1)c1nc(-c2cc3c(ccc4ccccc43)oc2=O)cs1 | inactive: 3.27%
18 | CCOC(=O)c1cccc(NC(=O)Cn2cnc3nc4c(cc3c2=O)CCCC4)c1 | inactive: -19.7%
19 | CCN(CC)CCCNC(=O)c1ccc2c(c1)NC(=O)C(CS(=O)(=O)Cc1ccc(F)cc1Cl)N2 (stereo not given) | inactive: 2.67%
20 | COCCNC(=O)c1sc2nc3n(c(=O)c2c1C)CCC3 | inactive: 6.2%
21 | COc1ccc(N2CC(c3nc(-c4ccccc4C)no3)CC2=O)cc1Cl (stereo not given) | inactive: -3.39%
22 | CCNC(=O)NCCCOc1cccc(CN2CCCCC2)c1 | inactive: -12.8%
23 | COC(=O)c1ccc(NC(=O)C(c2ccccc2)N2Cc3ccccc3C2=O)cc1 (stereo not given) | inactive: -9.42%
24 | Cc1cccc(CCNC(=O)CCc2c(C)nc3c(-c4ccc(F)cc4)c(C)nn3c2C)c1 | inactive: -14.8%
25 | Cc1nc(-c2ccc(Cl)cc2)sc1CCNC(=O)C(=O)Nc1ccccc1C#N | inactive: -25.5%

Row | SMILES | activity change, negative = inhibition
26 | COc1ccc(N2CCN(C(=O)c3cc4c(s3)-c3c(C)cccc3OC4)CC2)cc1 | inactive: -0.507%
27 | Cc1cc(C)cc(NC(=O)C2CCCN(c3nnc(-n4c(C)ccc4C)s3)C2)c1 (stereo not given) | inactive: -20.7%
28 | CCCc1ccc(OC(=O)c2sc3ncn(Cc4cccc(F)c4)c(=O)c3c2C)cc1 | inactive: -19.2% [at 11.5 µM]
29 | COc1ccc(NC(=O)Cn2c(SCc3c(F)cccc3Cl)nc3ccncc32)cc1OC | inactive: -6.74%
30 | COCCn1c(SCC(=O)Nc2ccc(Br)cc2)nc2c([nH]c3ccccc32)c1=O | inactive: -2.76%
31 | CCCCN(C(=O)Nc1ccc(OCC)cc1)C1CCN(C(C)=O)CC1 | inactive: 4.63%
32 | COC(=O)/C=C(/C)N | inactive: 18%
33 | COc1ccccc1CSc1nc2n(n1)C(c1ccccc1)C(C(=O)Nc1ccc(C)cc1)=C(C)N2 (stereo not given) | inactive: -27.3%
34 | Cc1ccc(NC(=O)C2CCCN(S(=O)(=O)c3ccc(C)cc3)C2)cc1 (stereo not given) | inactive: -9.34%
35 | COc1ccc(NC(=O)Cn2ncc3c4ccccc4n(Cc4ccccc4)c3c2=O)cc1OC | inactive: 16.5%
36 | COc1ccccc1-c1ncnn1-c1sc2c(c1C#N)CCCCC2 | inactive: 3.79%
37 | Cc1ccc(NC(=O)Cn2nc(-c3ccc(Cl)cc3)c3ccccc3c2=O)cc1 | inactive: -11.4%
38 | NNCCc1ccccc1 | inactive
39 | Cc1c(Cl)cccc1NC(=O)CCS(=O)(=O)c1cccc2nsnc12 | inactive: -8.27%
40 | COc1ccc(OC)c(S(=O)(=O)NCCc2sc(C)nc2C)c1 | inactive: -14.2%
41 | Cc1cccc(COc2ccc(-c3cc(C(F)(F)F)n4nc(C)cc4n3)cc2)c1 | inactive: 3.41%
42 | Cc1ccc(CNC(=O)CCN2C(=O)C(C)Oc3ccc(C)cc32)cc1 (stereo not given) | inactive: -21.8%
43 | CCc1ccc(-c2nc3cc(NC(=O)c4ccc(F)cc4)ccc3o2)cc1 | inactive: -5.42%
44 | Cc1ccc(NC(=O)CCNS(=O)(=O)c2cccs2)cc1F | inactive: 15.6%
45 | Cc1cn2c(=O)cc(COC(=O)COc3ccc(F)cc3)nc2s1 | inactive: -15.1%
46 | COc1ccc(-n2c(=O)c3c(c4cc(OC)ccc4n3C)n(Cc3c(F)cccc3Cl)c2=O)cc1 | inactive: 1.5%
47 | CSc1ncc2c(n1)-c1ccccc1N(Cc1ccccc1C)S2(=O)=O | inactive: -14.3%
48 | Cc1cccc(-n2c3nc(=O)n(C)c(=O)c-3cc3c(C)nn(-c4ccccc4)c32)c1C | inactive: -6.75%
49 | COC1(C(F)(F)F)NC(=O)N(c2ccc(F)cc2)C1=O (stereo not given) | inactive: -24.3% [at 11.5 µM]
50 | COc1ccc(Cl)cc1NC(=O)N1CCC2(CC1)Oc1ccccc1C(=O)N2Cc1ccc(F)cc1 | inactive: -27.9%

Row | SMILES | activity change, negative = inhibition
51 | CSc1nc2sc3c(c2c(=O)n1-c1ccc(C)cc1)CCCC3 | inactive: -6.45%
52 | Cc1ccc(OCCSc2nc3ccc(NC(=O)COc4ccc(C)cc4)cc3s2)cc1 | inactive: 1.66%
53 | CCOC(=O)c1cnn(-c2cccc(Cl)c2)c1C1CCN(C(=O)OC(C)(C)C)CC1 | inactive: -6.88%
54 | COc1ccc(NC(=O)N2CCC(n3c(C)nc4cccnc43)CC2)cc1OC | inactive: 6.44%
55 | Fc1ccc(NCc2nc3ccccc3n2CCOc2ccccc2Cl)cc1 | inactive: -25.4%
56 | CC1CCc2c(sc3nnn(CC(=O)Nc4ccccc4Cl)c(=O)c23)C1 (stereo not given) | inactive: -15.3%
57 | CCCn1cc(S(=O)(=O)c2ccc(OCC)cc2)c(=O)c2cc(C)ccc21 | inactive: -25.3%
58 | CCCCC(=O)Nc1cc(-c2cn3cccnc3n2)ccc1C | inactive: -2.23%
59 | CCOc1ccc(-c2c(C)nn3c(C)c(C(=O)NC(C)c4ccccc4)cnc23)cc1OCC (stereo not given) | inactive: -26.6%
60 | O=C(CCSCc1ccccc1Cl)NCCc1ccccc1 | inactive: 10.7%
61 | Cc1c(-c2cccc(NC(=O)Cc3ccccc3)c2)nc2ncccn12 | inactive: -3.93%
62 | O=C(Cn1ccn(-c2ccc(F)c(F)c2)c(=O)c1=O)NCc1ccccc1 | inactive: -2.91%
63 | Cc1cc(C)c(NC(=O)c2cc(S(=O)(=O)N3CCCC3)cn2C)c(C)c1 | inactive: -7.04%
64 | Cc1ccc(OCCSc2nc3ccccc3n2CC(=O)N2CCOCC2)cc1C | inactive: -20.2%
65 | COc1cc(Cl)c(S(=O)(=O)N2CCN(c3c(C)cccc3C)CC2)cc1Cl | inactive: -6.77%
66 | COc1ccc(CNc2nc(-c3ccccc3)nn2C(=O)c2ccccc2OC)cc1 | inactive: -2.23%
67 | CCOC(=O)c1cc2c(=O)n3ccccc3nc2n(CC2CCCO2)c1=NC(=O)c1ccc(OCC)cc1 (stereo not given) | inactive: -4.32%
68 | CN(Cc1ccccc1)C(=O)c1c[nH]c2ccc(S(=O)(=O)Nc3ccccc3F)cc2c1=O | inactive: 12%
69 | CCOc1cc(C(=O)N2CC(=O)Nc3ccc(F)cc3C2c2ccccc2)cc(OCC)c1OCC (stereo not given) | inactive: -15.7%
70 | COc1ccc(N2CCN(CCCNC(=O)c3sc4ncccc4c3-n3cccc3)CC2)cc1 | inactive: -25.9%
71 | COc1cc2nc(NCCc3ccc(Cl)cc3)n3nc(-c4ccccc4)nc3c2cc1OC | inactive: -10.1%
72 | CCN(C(=O)c1nn(C)c2c1CSc1ccccc1-2)c1cccc(C)c1 | inactive: -15.4%
73 | COc1ccc(NC(=O)Cn2nc(C)c3c(C)n(-c4ccccc4)nc3c2=O)cc1OC | inactive: 2.53%
74 | CCCCCCCCCCCCCCCC(=O)OC(C)C | inactive: 13.3%
75 | CCOc1cc(-c2cc(C(=O)O)c3c(-c4ccccc4)[nH]nc3n2)ccc1O | inactive: -0.714%

Row | SMILES | activity change, negative = inhibition
76 | COc1ccc(S(=O)(=O)NCC(c2ccco2)S(=O)(=O)c2cccs2)cc1OC (stereo not given) | inactive: -15.3%
77 | Cc1ccc(C)c(Nc2nc(-c3ccccc3)c3cc(Br)ccc3n2)c1 | inactive: -4.48%
78 | COc1ccc(CCNC(=O)CCCCn2c(=O)c3ccccc3n(CC(=O)Nc3ccc(C)cc3C)c2=O)cc1OC | inactive: -5.97%
79 | O=C(COc1ccccc1)NCCc1csc(-c2cccc(F)c2)n1 | inactive: -4.58%
80 | N#Cc1cccc(NC(=O)Cn2nc(Cc3ccncc3)c3ccccc3c2=O)c1 | inactive: -25.6%
81 | CCN1C(=O)C(Cc2nc3ccccc3c(=O)n2-c2ccc(OC)cc2)c2cc(C)ccc21 (stereo not given) | inactive: -19.3%
82 | Cc1cccc(C(=O)Nc2cccc(OCc3cc(=O)n4cccc(C)c4n3)c2)c1 | inactive: 4.72%
83 | CCN(CC)CCNC(=O)C(=O)NCC(c1cccnc1)N1CCN(c2ccccc2)CC1 (stereo not given) | inactive: -22.5%
84 | Cc1cc(Sc2ccc(Cl)cc2)nc2ccccc12 | inactive: 29.7%
85 | O=C(CSc1ccccc1)NCc1ccc2c(c1)CCN2C(=O)c1ccc(Cl)cc1 | inactive: -20.3%
86 | CC(C)(C)OC(=O)N1CCC(c2c(C(=O)NC3CCCCC3)cnn2-c2cccc(F)c2)CC1 | inactive: -8.08%
87 | C/C(=N\O)c1ccc(OCC(=O)N2CCCCC2)cc1 | inactive: 10.6%
88 | Cc1ccc(C(=O)c2ccc(CC(=O)O)n2C)cc1 | inactive: 4.6%
89 | COC(=O)c1c(NC(=O)Cc2coc3ccc(C)cc23)sc2c1CCC2 | inactive: -16.1%
90 | COc1ccc(-n2nc(C(=O)Nc3ccc(Cl)cn3)c3c4ccccc4n(C)c3c2=O)cc1Cl | inactive: -13%
91 | Cc1ccc(CCNC(=O)c2cc(Nc3ccc(C)c(C)c3)nc3ccccc23)cc1 | inactive: -13%
92 | COc1ccc(C2C(C(N)=O)=C(C)Nc3nc(CCCO)nn32)cc1 (stereo not given) | inactive: -0.443%
93 | O=C(c1ccccc1Cl)N(Cc1ccco1)Cc1ccco1 | inactive: -4.11%
94 | Cc1cc(F)ccc1-n1nnc(C(N)=O)c1C | inactive: 4.55%
95 | CC(=O)c1cccc(NC(=O)c2c(-c3ccccc3)c(-c3ccccc3)nn(C)c2=O)c1 | inactive: -11.3%
96 | CN(Cc1ccccc1)c1ccc(-c2nc(-c3ccco3)no2)cc1[N+](=O)[O-] | inactive: 20.6%
97 | CCCCN(CCCC)CCCOC(=O)c1ccc(N)cc1 | inactive: 4.05%
98 | Cc1cc(C(F)(F)F)nn1-c1nc(-c2ccccc2)cc(C(F)(F)F)n1 | inactive: -28.4%
99 | Cc1cc(=O)n(CC(=O)Nc2ccc([N+](=O)[O-])cc2)c(-n2nc(C)cc2C)n1 | inactive: -20.6%
100 | Cc1ccccc1NC(=O)Cn1c(=O)n(CCc2ccccc2)c(=O)c2sc3ccccc3c21 | inactive: -2.09%

From PubChem BioAssay AID1508623 (National Center for Advancing Translational Sciences (NCATS), 2021)
